# The list shows a part of the results.
# Tested on: T1, C. trachomatis L2/434/Bu expressing GFP (CTL2-GFP)
# T1 construct: L2/434/Bu GFP intracellular growth in HeLa cells
# Set-up: species or system HeLa; C. trachomatis total inclusion area by high-content imaging, normalised to DMSO
# Settings: total inclusion area; 28.5 h, 10 µM; inhibitor
# Method in brief: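 Imaging read-out: GFP inclusions and Hoechst nuclei captured by high-content imaging after fixation. Inclusion area/number = chlamydial growth; nuclei count = host cell viability. MIC calculated per earlier method.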
row,Structure (SMILES),% of control remaining
1,CN(C)C(=O)Cn1nc(-c2cccc(-n3cccc3)c2)oc1=O [CBK283759],48.5089
2,CC(=O)C(Sc1nc(NC(C)C)nc(N(C)C)n1)C(C)=O [CBK269811],92.2576
3,Cc1cccc(C)c1NC(=O)CC1Sc2ccccc2NC1=O (stereo not shown) [CBK267160],103.532
4,O=C(CN1CCCCC1)Nc1c(-c2ccccc2)c2cc(Br)ccc2[nH]c1=O [CBK263351],86.6324
5,Cc1oc(NC(=O)CN2CCN(c3ncccn3)CC2)c(C#N)c1C [CBK305569],110.515
6,CCN(CC)c1nc(Cl)c(C#N)c2c1CN(C)CC2 [CBK009140],50.1958
7,O=C1COc2ccccc2C/C=C/C[C@H]2CN(C(=O)Cn3ncc4ccccc4c3=O)CC[C@H]2N1 [CBK292084],80.0418
8,O=C(O)C1CCC(CNc2ccc([N+](=O)[O-])cn2)CC1 (stereo not shown) [CBK286626],127.74
9,Cc1nc2c(C)cccc2c(O)c1CN1CCCCCC1 [CBK264512],106.948
10,COc1cc2c(c(OC)c1OC)CC(=O)NC21CCN(C(=O)NC(C)(C)C)CC1 [CBK047301],81.9995
11,Cc1cc(CN2CCN(C(=O)NCc3cccnc3)CC2)on1 [CBK305627],38.8648
12,COc1cccc(OC)c1-c1cn2ccnc2c(NCc2ccccn2)n1 [CBK037439],96.2934
13,CC(c1ccccc1)C(CC(=O)O)C(=O)NCc1ccccc1 (stereo not shown) [CBK286830],74.0769
14,O=C(O)CCCn1cc(NC(=O)c2cccc(F)c2)cn1 [CBK270051],88.6366
15,COc1ccccc1NC(=O)NC(=O)C1CCN(C(C)=O)CC1 [CBK034853],89.3922
16,COc1ccc(Nc2cc(-n3nc(C)cc3-c3ccccc3)ncn2)cc1 [CBK293925],108.891
17,Cc1ccc(Cn2ccsc2=NC(=O)c2cc(S(=O)(=O)N3CCOCC3)ccc2C)cc1 [CBK296935],79.2356
18,COC(=O)Nc1ccccc1N1CCN(CCCCN2CCN(c3ccccc3)C2=O)CC1 [CBK024372C],23.0515
19,Clc1ccc(-c2cn(-c3cnc4ccccc4c3)nn2)cc1 [CBK113044],85.5451
20,O=C(C1CCC1)N1CCC(n2c(=O)[nH]c3ccccc32)CC1 [CBK149709],101.316
21,Nc1c(-c2cc(F)cc(F)c2)cnc2ncccc12 [CBK083677],95.2748

row,Structure (SMILES),% of control remaining
1,N#C/C(=N/Nc1ccc(Br)cc1)C1=NC(=O)CS1 [CBK018747],88.642
2,O=C(COC(=O)c1ccncc1)c1ccc(OC(=O)c2ccccc2)cc1 [CBK265169],91.5187
3,Cc1nn(-c2ccccc2)c2[nH]c(=O)c(CNC(C)C)cc12 [CBK282899],107.321
4,COc1ccc(C(=O)Nc2ccccc2N2CCN(C)CC2)cc1Cl [CBK268001],84.937
5,CC(C)CCC(C)NC(=O)c1ccc(Oc2ccc(F)cc2)cc1 (stereo not shown) [CBK295650],76.9126
6,Nc1nonc1C(=O)NCCNCc1ccc(Cl)cc1 [CBK267194],108.554
7,Nc1cc(O)nc(SCC(=O)N2CCN(c3ccccc3)CC2)n1 [CBK267925],103.166
8,CN(Cc1ccc2ncccc2c1)C(=O)CC1CCN(CCc2ccccc2)CC1 [CBK286261],72.6554
9,Cc1nccn1CCC1CCN(C(=O)c2cnn(C)c2)CC1 [CBK281951],112.555
10,CC1(C)Cc2c(oc(N)c2C#N)CO1 [CBK014395],70.4948
11,CC(C)n1c(=O)[nH]c2ccncc2c1=O [CBK015763],97.3318
12,O=C(O)C1CCCN1S(=O)(=O)c1ccc([N+](=O)[O-])cc1 (stereo not shown) [CBK261424],109.809
13,O=S(=O)(c1ccc(Br)cc1C(F)(F)F)N1CCOCC1 [CBK062405],61.1399
14,O=C(Cc1c[nH]c2ccccc12)NC(Cc1ccccc1)C(=O)O (stereo not shown) [CBK286770],93.6087
15,Cc1ccn2c(=O)c(C(=O)NCc3cccnc3N3CCOCC3)cnc2c1 [CBK298316],69.0866
16,O=C(NC1CC(=O)N(CC(F)(F)F)C1)c1cnc(-c2ccncc2)s1 (stereo not shown) [CBK305546],26.4606
17,O=S(=O)(Cc1cc(Cl)ccc1C(F)(F)F)c1cc2c(N3CCNCC3)nccc2s1 [CBK049960C],80.4073
18,CC(=O)N1N=C(c2ccc3c(c2)OCO3)CC1c1ccc(C(=O)O)cc1 (stereo not shown) [CBK286547],108.869
19,O=S(=O)(NCCN1CCOCC1)c1ccc(Cl)c(Cl)c1Cl [CBK264973],115.093
20,O=C(c1cccs1)N1CCC[C@@H]1Cn1c(=O)oc2ccccc21 [CBK284528],76.1198
21,Cc1cc(C)c2nc(C(F)(F)F)nc(NCCCN3CCOCC3)c2c1 [CBK266753],70.5558

row,Structure (SMILES),% of control remaining
1,O=C(Nc1nc(-c2cccs2)cs1)c1ccc(F)cc1 [CBK287327],77.7935
2,O=C(O)CNC(=O)c1ccccc1NC(=O)c1ccco1 [CBK286894],118.806
3,COc1cccc(CN2CCCC[C@H]3CN(C(C)=O)C[C@H]32)c1 [CBK285510],103.951
4,Cc1ccnc(SCc2cc(=O)c3c(=O)n(-c4ccccc4)[nH]c3[nH]2)n1 [CBK269875],68.1804
5,Cc1cc(NC(=O)CN2CCOC(CNc3cccnn3)C2)on1 (stereo not shown) [CBK305231],45.3435
6,O=C(NCC1(c2ccccc2)CCC1)C1CCCN(C(=O)c2ccoc2)C1 (stereo not shown) [CBK296670],130.454
7,COc1ccc2[nH]c(SCC(=O)Nc3ccc(Br)cc3)nc2c1 [CBK263447],90.6879
8,O=C(OCc1cc2ccccc2cn1)N1CCOCC1 [CBK200121],90.1441
9,O=C(NCCN1CCN(Cc2ccccc2Cl)CC1)Nc1ccccc1 [CBK268039],87.9217
10,Cc1cc(NC(=O)c2ccccc2)n(-c2nc(C)c(C)c(=O)[nH]2)n1 [CBK287655],82.3077
11,COc1ccccc1N1CCN(C(=O)CCCC(=O)O)CC1 [CBK286904],72.5397
12,CC/C(=C/c1sc2ccc3ccccc3c2[n+]1CCCS(=O)(=O)[O-])SC [CBK260901],83.4718
13,O=C(NCc1ccccn1)C(=O)N/N=C/c1ccccc1O [CBK262157],106.529
14,O=C(NCC1CCCO1)C(=O)Nc1ccccc1F (stereo not shown) [CBK263557],103.453
15,Cc1ccc(COc2cc(C(=O)NCc3ccccn3)c3ccccc3n2)cc1 [CBK294403],112.049
16,CCCCN(CC)S(=O)(=O)c1ccc(-n2ncc(Cl)c(Cl)c2=O)cc1 [CBK305036],0
17,CC(C)N(C(=O)Cn1cccc2cc(C(F)F)nc1-2)C(C)C [CBK285012],93.9549
18,COc1ccc(CN(Cc2ccccc2OC)[C@@H]2COC[C@H]2c2ccc(F)cc2)cc1 [CBK286484],92.5196
19,CN1CCN(CCC(=O)Nc2ccc3c(c2)CCC3)CC1 [CBK264197],95.9923
20,CCN(CC)c1ccc(C(=O)CN2CCC(Oc3nccnc3OCc3cccnc3)CC2)cc1 [CBK083167T],88.5578
21,Cc1cc(Cl)c(S(=O)(=O)Nc2ccc(I)cc2)cc1OCC(N)=O [CBK266418],125.343

row,Structure (SMILES),% of control remaining
1,Cc1nc(SCC(=O)O)nc(O)c1CCC(C)C [CBK269920],75.2595
2,CS(=O)(=O)Nc1ncc(Br)cc1C(=O)NCc1ccc(F)cc1 [CBK076538],96.0566
3,O=c1c2c(n3c(S)nnc3n1Cc1ccco1)-c1ccccc1CC21CCCCC1 [CBK265271],121.086
4,CCOc1ccc(S(=O)(=O)N(C)CC(=O)O)cc1 [CBK270032],83.526
5,Cc1ncc([N+](=O)[O-])n1Cc1nnc(S)n1C [CBK267873],81.6739
6,Cc1cccc(-c2ncc(NC(=O)COc3ccc4ccccc4c3)nc2-c2ccc(N(C)C)cc2)c1 [CBK037575],79.098
7,CCOC(=O)c1cc2c(CNc3ccc(OC)nc3)cccc2o1 [CBK006086],121.271
8,CN1CCCN(c2nc(-c3cccc(C(F)(F)F)c3)cn3ccnc23)CC1 [CBK066519],99.8995
9,CC(C)(C)OC(=O)NCCc1ccc(Nc2cc(-c3cc4ccccc4s3)ncn2)cc1 [CBK090959],96.8988
10,Nc1nc(COn2c(-c3ccccc3)nc3ccccc3c2=O)nc(-c2ccccc2O)n1 [CBK266689],120.802
11,C=C1C2(C(=O)N3CCC(Oc4cccnc4)CC3)CCC(C2)C1(C)C (stereo not shown) [CBK282082],90.1592
12,O=C(Nc1nnc(Cc2cccs2)o1)c1ccccc1 [CBK287831],72.7749
13,COc1ccc(C(NC(=O)C2CCCN(C(=O)NC(=O)c3ccccc3)C2)c2ccccc2C)cn1 (stereo not shown) [CBK075023],92.4107
14,CCc1ccccc1NC(=O)Cc1ccc(OC)cc1 [CBK087898],88.9045
15,COc1ncccc1C(=O)N1CCN(CCc2ccccc2)CC1 [CBK200226],62.9879
16,CCC(CC)CNc1ncnc2ccc(S(C)(=O)=O)cc12 [CBK306495],38.4021
17,CN1CCN(C(=O)c2[nH]c3ccccc3c2NS(=O)(=O)c2cccc3cccnc23)CC1 [CBK050041],85.8034
18,Cc1ccccc1NC(=O)NCc1ccccc1F [CBK105832],50.7566
19,COc1cccc([C@H]2CN(C(=O)c3ccccc3)[C@@H]3CCN(Cc4cccc(F)c4)C[C@H]23)c1 [CBK285626],81.4838
